# Screen size: about 52,000 compounds; about 4,300 (8.3%) were called active. No stated cut-off is given here; in the data, active means survival mostly below about 52% (no sharp cut-off); inactive means mostly above about 56%. The list shows a part of the results.
# System: DeltatarO mutant
# Experiment: S. aureus survival, RN4220 and DeltatarO strains – OD600, teichoic acid synthesis inhibitors, primary screen (AID 463173)
# Conditions: S. aureus RN4220 wild type/DeltatarO growth, OD600, 18 h, stronger effect = lower value; concentration not given here unless noted
row,SMILES,survival
1,CC1CN2CCC3=C(CCCC3)C2(C)C1 (centres undefined),inactive: 77%
2,O=c1c2ccccc2nc(CN2CCCCC2)n1-c1ccccc1,inactive: 102%
3,c1ccc(CN2CCNCC2)nc1,inactive: 83%
4,O=C(Nc1ccc2c(c1)OCCO2)c1cccn(Cc2ccccc2)c1=O,inactive: 79%
5,COc1ccc(C=C2C(=O)NC(=S)NC2=O)cc1,inactive: 96%
6,Cc1ccc(-c2nc(CN3C(=O)CN=C(c4ccccc4Cl)c4cc(Cl)ccc43)c(C)o2)cc1,inactive: 74%
7,Cc1cccc(Cn2cccc(C(=O)Nc3nnc(C)s3)c2=O)c1,inactive: 99%
8,COc1ccc(C(CN)CC(=O)O)cc1 (centres undefined),inactive: 92%
9,CCOc1ccccc1NC(=O)c1cccn(Cc2ccccc2C)c1=O,inactive: 70%
10,CCSc1nnc(NC(=O)c2cccn(Cc3ccccc3Cl)c2=O)s1,inactive: 79%
11,O=CNc1nonc1NNc1nonc1NC=O,inactive: 76%
12,N#Cc1cc2c(nc1SCC(=O)Nc1cccc(C(F)(F)F)c1)C1CCN2CC1,active: 4%
13,O=C(Cc1ccccc1)N1CCN(C2CCCC2)CC1,inactive: 59%
14,OC1(c2cccc(F)c2)CC2CCC(C1)N2Cc1nnnn1CCc1ccccc1 (centres undefined),inactive: 85%
15,CC(=O)c1cccc(NC(=O)c2cccn(Cc3cccc(C)c3)c2=O)c1,inactive: 87%
16,COc1ccc(NC(=O)CN2C(=O)C(C)N=C(c3ccccc3)c3ccccc32)cc1OC (centres undefined),inactive: 116%
17,Cc1[nH]c2c(C)cccc2c1CCN,active: 37%
18,Cc1ccc(OCC(=O)Nc2ccc(Cl)cc2C(=O)c2ccccc2)c(Br)c1,inactive: 75%
19,O=C(O)C12C3CCCC1C32c1ccccc1 (centres undefined),inactive: 85%
20,COc1ccc(OCC(=O)N2CCN(Cc3cc(=O)n4nc(-c5ccc(OC)cc5)sc4n3)CC2)cc1,inactive: 90%
21,COc1ccc(CC2C(=O)NC(=O)N(c3ccccc3)C2=O)c(OC)c1 (centres undefined),inactive: 91%
22,Cc1ccc(OCC(=O)N2CCN(CCc3ccncc3)CC2)cc1,inactive: 86%
23,Cc1cccc(Cn2cccc(C(=O)Nc3ccc(F)cc3F)c2=O)c1,inactive: 92%
24,COc1ccc(OCC(=O)N2CCN(Cc3ccc(SC)cc3)CC2)cc1,inactive: 157%
25,Cc1ccccc1-n1c(/C=C/c2ccc(N(C)C)cc2)nc2ccccc2c1=O,active: 8%
26,O=C(c1ccc2c(c1)N(Cc1ccc(F)cc1)C(=O)c1ccccc1S2)N1CCC2(CC1)OCCO2,inactive: 94%

row,SMILES,survival
1,COc1ccccc1CN1CCN(Cc2ccccc2OC)CC1,inactive: 77%
2,CC(C)NC(C)C(=O)c1ccc2ccccc2c1 (centres undefined),inactive: 96%
3,Cc1nnc(NC(=O)c2cccn(Cc3cccc(F)c3)c2=O)s1,inactive: 76%
4,CN1C(=C2C(=O)NC(=O)NC2=O)Sc2ccccc21,inactive: 79%
5,COc1ccc(CN2CCN(Cc3ccccc3)CC2)cc1,inactive: 97%
6,CCN(CC)c1ccc2c3c(c(=O)oc2c1)C(c1cc2c(C)cc(C)cc2[nH]c1=O)C(C#N)=C(N)O3 (centres undefined),inactive: 91%
7,Cc1ccc(OCC(=O)Nc2ccc(Cl)cc2C(=O)c2ccccc2)cc1C,inactive: 69%
8,COc1cccc(-c2nn3c(=O)cc(CN4CCN(C(=O)COc5ccccc5C)CC4)nc3s2)c1,inactive: 95%
9,CCOc1ccc(CN(CCc2ccc3c(c2)OCO3)Cc2ccc(OC)c(Br)c2)cc1,inactive: 67%
10,C[N+]12CN3CN(CN(C3)C1)C2,inactive: 81%
11,Cn1c(O)c(C=Nc2ccccc2)c(=O)n(C)c1=O,inactive: 98%
12,Cc1ccccc1CN1C(=O)C(C)N=C(c2ccccc2)c2ccccc21 (centres undefined),inactive: 83%
13,Nc1c2c(nc3sc4c(c13)CCCC4)CCCC2,inactive: 78%
14,CCc1ccc(OCC(=O)N2CCN(CCc3ccncc3)CC2)cc1,inactive: 98%
15,Cc1ccc(C(C)C)c(OCC(=O)N2CCN(CCc3ccncc3)CC2)c1,active: 42%
16,Cc1cccc2cc(C=C(C#N)C#N)c(Cl)nc12,inactive: 83%
17,Cn1cccc1CNCCc1ccccc1,inactive: 82%
18,O=C(O)CCC1C(=O)NC(=O)NC1=O,inactive: 92%
19,Cc1ccccc1-n1c(/C=C/c2c(C)[nH]c3ccccc23)nc2ccccc2c1=O,active: 18%
20,CC(C(=O)c1ccc2ccccc2c1)N1CCCCC1 (centres undefined),inactive: 98%
21,COc1ccc(OCC(=O)N2CCN(CCc3ccncc3)CC2)cc1,inactive: 82%
22,Cc1ccccc1-n1nc(C)c2c1NC(=O)CSC2c1ccc(Cl)cc1 (centres undefined),active: 21%
23,O=C(Cn1cc(C(=O)c2ccccc2)c2ccccc21)NCc1ccco1,inactive: 75%
24,Cc1cccc(-n2c(-c3ccco3)nc3ccccc3c2=O)c1,inactive: 94%
25,Cc1c(C(c2ccc(Br)cc2)c2c(O)c3ccccc3oc2=O)c(=O)n(-c2ccccc2)n1C (centres undefined),active: 49%
26,CNC(=O)Oc1c(Br)cc2sc(=O)oc2c1Br,inactive: 109%

row,SMILES,survival
1,Cc1ccc(Cn2cccc(C(=O)Nc3cc(C)on3)c2=O)cc1,inactive: 81%
2,CN1CCCSC1=Nc1ccccc1F,inactive: 93%
3,COc1ccc(Cc2c(O)[nH]c(=S)[nH]c2=O)cc1,inactive: 86%
4,CN(C)c1ccc(NC(=O)c2sc3nc4c(cc3c2N)N2CCC4CC2)cc1,inactive: 146%
5,Cn1c(O)c(C=NCCN2CCN(C(=O)c3ccccc3)CC2)c(=O)n(C)c1=O,inactive: 78%
6,Cc1ccc(-c2nn3c(=O)cc(CN4CCN(C(=O)COc5ccc(C)c(C)c5)CC4)nc3s2)cc1,inactive: 81%
7,CCCC1=Nc2cc(C(=O)NCCCN(CC)CC)ccc2Sc2ccccc21,inactive: 138%
8,Cc1ccc(-c2nc(CN3C(=O)CN=C(c4ccccc4)c4ccccc43)c(C)o2)cc1,inactive: 49%
9,CCCC1(CCC)C(=O)NC(=Nc2ccccc2)NC1=O,inactive: 95%
10,CN1CCN(Cc2cn3ccccc3n2)CC1,inactive: 104%
11,COc1cccc(NC(=O)c2cccn(Cc3ccccc3C)c2=O)c1,inactive: 83%
12,COC(=O)C1=C(C)OC(N)=C(C#N)C12C(=O)Nc1ccc(C)cc12 (centres undefined),inactive: 93%
13,COc1ccccc1C1SCC(=O)Nc2c1c(C)nn2-c1cccc(C)c1 (centres undefined),active: -1%
14,Cc1ccc(Cn2cccc(C(=O)Nc3ccc4c(c3)OCCO4)c2=O)cc1,inactive: 83%
15,CCC(C)N1CCN(Cc2ccccc2)CC1 (centres undefined),inactive: 99%
16,OC1(c2cccnc2)CCNCC1,inactive: 105%
17,CCOc1ccc(CN(CCc2ccc3c(c2)OCO3)Cc2ccc(C)cc2)cc1,inactive: 46%
18,CC(C)Cc1nc2cccnc2n1C1CCNCC1,inactive: 120%
19,Cc1cccc(-n2nc(C)c3c2NC(=O)CSC3c2ccccc2Cl)c1 (centres undefined),active: 43%
20,Cc1cccc(CN2C(=O)CN=C(c3ccccc3)c3ccccc32)c1,inactive: 73%
21,COc1ccc(-n2c(/C=C/c3cccc(F)c3)nc3ccccc3c2=O)cc1Cl,inactive: 85%
22,CCOC(=O)c1[nH]c(C)c(C=C(C#N)C#N)c1C,inactive: 58%
23,Cc1ccc(NC(=O)Cn2cc(C(=O)c3ccccc3)c3ccccc32)c(C)c1,inactive: 62%
24,COc1cccc(C2SCC(=O)Nc3c2c(C)nn3-c2ccc(C)c(Cl)c2)c1OC (centres undefined),inactive: 55%
25,C=C1N2CCC(CC2)C1(O)c1ccc(C)cc1 (centres undefined),active: 44%
26,Cc1cccc(-c2nn3c(=O)cc(CN4CCN(C(=O)COc5ccc(Cl)cc5)CC4)nc3s2)c1,inactive: 107%

row,SMILES,survival
1,Cc1cccc(CN2CCN(C(=O)COc3ccccc3)CC2)c1,inactive: 66%
2,CCn1cc(C=C(C#N)C#N)c2ccccc21,inactive: 93%
3,O=c1c2ccccc2nc(/C=C/c2ccccc2F)n1-c1cccc(O)c1,active: 2%
4,CCc1nc(SC)ncc1C(=O)Nc1ccc(Cl)cc1C(=O)c1ccccc1,inactive: 80%
5,O=C(Nc1ccc2c(c1)OCO2)c1cccn(Cc2cccc([N+](=O)[O-])c2)c1=O,inactive: 91%
6,CN1CCN(C(=O)COc2cccc3ccccc23)CC1,inactive: 98%
7,COc1ccc(NC(=O)CCc2nc(C3=CCN(Cc4cccc(Cl)c4)CC3)no2)c(OC)c1,inactive: 117%
8,O=S1(=O)N(Cc2ccccc2Cl)CCCN1Cc1ccccc1Cl,active: 10%
9,O=C1/C(=C\c2cc3c(cc2Cl)OCO3)N2CCC1CC2,inactive: 87%
10,Cc1ccccc1OCC(=O)N1CCN(CCc2ccccn2)CC1,inactive: 56%
11,Cc1cccc2sc(NC(=O)c3cccn(Cc4ccccc4)c3=O)nc12,inactive: 99%
12,CCCC1=Nc2cc(C(=O)NC3CCC(C)CC3)ccc2Sc2ccccc21 (centres undefined),active: 39%
13,O=C(CN1C(=O)CN=C(c2ccccc2)c2ccccc21)Nc1cccc(C(F)(F)F)c1,inactive: 57%
14,Cc1cc(NC(=O)c2cccn(Cc3ccccc3)c2=O)no1,inactive: 96%
15,Nc1c(C(=O)Nc2cccc(Br)c2)sc2nc3c(cc12)N1CCC3CC1,active: 40%
16,c1cncc(C2CCCCN2Cc2ccc3c(c2)OCO3)c1 (centres undefined),inactive: 97%
17,CC(C)n1cc(C(=O)N(C2CC2)C(C(=O)NC2CCCC2)c2ccccc2)cn1 (centres undefined),inactive: 101%
18,CC(N)Cc1cn(Cc2ccccc2)c2ccccc12 (centres undefined),inactive: 112%
19,CNCCCc1ccccc1,inactive: 95%
20,N#CC(C#N)=Cc1ccc(Sc2ccccc2)o1,inactive: 72%
21,CN1CCc2c(C#N)c(N)n(N)c(=S)c2C1,inactive: 103%
22,COC1CCCCC1NC1CCCC1 (centres undefined),inactive: 66%
23,c1coc(CN2CCNCC2)c1,inactive: 73%
24,CN1CCc2c(C#N)c(Cl)nc(NCc3ccccc3)c2C1,inactive: 94%
25,O=C1C2CN3CN(C2)CC1(c1ccccc1)C3,inactive: 89%
26,CCN(CC)C(=O)c1ccc(NC(=O)CCn2nc(-c3ccc(C)cc3)c3ccccc3c2=O)cc1,inactive: 61%
